# Data from PubChem BioAssay AID686971 (National Center for Advancing Translational Sciences (NCATS), 2013).
# Among all 360,000 compounds or so, about 7,500 (2.1%) were called active. Inconclusive results, whose numbers are uncertain, are shown with a selection of clear calls. The call rests on the fitted dose curve; in most records, active means well fitted cell-killing curve with a large enough effect; inconclusive means small, poorly fitted or top-dose-only effect, or effect the other way, or another doubt; inactive means no such curve, though single readings can be large or run the other way. No potency is given beside an inconclusive call; the fits are too rough. Some structures have more than one record in an assay (separate samples or runs), and their calls can disagree.
# Experiment: qHTS for induction of synthetic lethality in tumor cells producing 2HG: qHTS for the HT-1080-IDH1KD cell line;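 on activity, negative = toxicity: 0% = DMSO wells and -100% = cell-free medium wells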
# Details: HT-1080 IDH1 knockdown viability, ATP luminescence, 48 h; activity, negative = toxicity: at 46.1 µM (top of the series) unless noted
# Procedure, shortened: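 Assay cells: HT-1080 with IDH1 knockdown, 750 per well, RPMI/5% FBS. Exposure: 48 h at 37 °C following 2 h pre-incubation. Read: CellTiter-Glo luminescence; fitted concentration-response, curve class assigned.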
# Potency means the concentration at half of the fitted maximal effect; tags describe the fitted curve by direction and shape.
SMILES,Potency,"activity, negative = toxicity"
COc1ccc(Cl)cc1C(=O)NNC(=O)CNC(=O)c1ccco1,inactive,–
Cc1nnnn1/C(=C\c1ccccc1)C(=O)OCC(=O)Nc1cccc(S(=O)(=O)N(C)C)c1,"inconclusive [cytotoxic, single point]",–
C[C@@H](C(=O)NCCc1c[nH]c2ccccc12)[C@H]1C[C@]1(C)[C@H](NC(=O)OCc1ccccc1)c1ccccc1,inactive,–
COc1cc2c(cc1OC)C(=O)N1[C@H]3c4cc(C)ccc4OC[C@@H]3[C@H](c3ccccc3)[C@]1(C)C(=O)N2,active: 16.4 µM,–
Cc1cc(=O)c2cccc(Br)c2[nH]1,inactive,–
CCOCCCn1c(=S)[nH]c2cc(C(=O)N3CCN(c4ccccc4)CC3)ccc2c1=O,inactive,–
COc1cc2c(cc1OC)CN(CCC(C)c1ccc(Cl)cc1)CC2 (configuration not stated),active: 14.6 µM,–
COc1ccc(C(=O)NC(=S)NNC(=O)c2cccc(C)c2)cc1,"inconclusive [cytotoxic, partial curve]",–
Oc1ccc(Cl)cc1CNC1CCCCC1,inactive,–
COc1cccc(CC2(CO)CCCN(Cc3c(C)cc(C)cc3-n3cccn3)C2)c1 (configuration not stated),"inconclusive [cytotoxic, partial curve]",–
COc1ccc(-c2cccc(C(=O)Nc3ccc(OC)c(OC)c3)c2)cc1,–,inconclusive: -34.5% [cytotoxic]
CCOc1ccccc1C(=O)N[C@H](C(=O)OCc1cc([N+](=O)[O-])cc2c1OCOC2)C(C)C,"inconclusive [cytotoxic, partial curve]",–
C[C@]12c3[nH]c4ccc(Cl)cc4c3CCN1C(=O)[C@@H](CC(=O)NCCN1CCOCC1)C[C@@H]2C(=O)N1CCCCC1,"inconclusive [cytotoxic, single point]",–
Cc1nc(C(=O)NNC(=O)c2ccc(C(F)(F)F)cc2)cs1,"inconclusive [cytotoxic, partial curve]",–
CC1=CC(C)(C)NC(=S)N1c1ccc2ccccc2c1,active: 7.08 µM,–
CN1CCN(Cc2cc(COCc3ccccc3)c3cccnc3c2O)CC1,"inconclusive [cytotoxic, single point]",–
NS(=O)(=O)c1ccc(NC(=O)Nc2ccc3c(c2)OCO3)cc1,"inconclusive [cytotoxic, single point]",–
O=S(=O)(O)Sc1ccccc1,"inconclusive [cytotoxic, partial curve]",–
O=C(c1ccc(Cl)c(S(=O)(=O)NCc2ccco2)c1)N1CCN(c2ccccc2F)CC1,"inconclusive [cytotoxic, single point]",–
O=C(CN1C(=O)COc2ccc(S(=O)(=O)N3CCOCC3)cc21)NCc1ccccn1,inactive,–
O=C(Nc1ccc(N2CCOCC2)c(Cl)c1)c1ccc(Cl)cc1,"inconclusive [cytotoxic, partial curve]",–
O=C(COc1ccc(Cl)cc1)N1CCN(S(=O)(=O)c2cc(F)ccc2F)CC1,inactive,–
CCCCC(=O)N1CCN(c2nc3ccc(Br)cc3s2)CC1,"inconclusive [cytotoxic, single point]",–
Cc1onc(-c2ccccc2)c1C(=O)NC(=S)NNC(=O)c1ccccc1O,active: 5.17 µM,–

SMILES,Potency,"activity, negative = toxicity"
CC1CCC2C(=O)N(c3ccc(Cc4ccncc4)cc3)C(=O)C2C1 (configuration not stated),"inconclusive [cytotoxic, single point]",–
CC(C)NC(=O)c1onc(CSc2cccc3ccccc23)c1C(=O)O,"inconclusive [cytotoxic, single point]",–
CCc1ccc2[nH]c(=O)c(CN(Cc3ccccc3OC)C(=O)Nc3ccccc3OC)cc2c1,inactive,–
COc1ccc2oc(C(=O)Nc3cccc(S(=O)(=O)N4CCOCC4)c3)c(C)c2c1,inactive,–
O=S1(=O)CC(N2CC=CC2)CN1Cc1ccccc1 (configuration not stated),inactive,–
CC1CCCN(c2nc3ccccc3nc2C(C#N)S(=O)(=O)c2cccs2)C1 (configuration not stated),"inconclusive [cytotoxic, single point]",–
Cc1cccc(CN(CC(=O)N/N=C/c2ccco2)S(=O)(=O)c2ccc(Cl)cc2)c1,inactive,–
CCOc1ccc(NC(=O)c2ccc(-n3cccn3)nc2)cc1,inactive,–
Cc1cccc2c1cnn2C(=O)Nc1ccccc1Cl,inactive,–
O=C(NC(=S)NC1CCCc2ccccc21)c1ccc(F)cc1 (configuration not stated),–,inconclusive: -32.4% [cytotoxic]
CCOC(=O)CSc1ccc(-c2nc3cc(C)c(C)cc3[nH]2)cn1,inactive,–
CCN(CC)c1ccc(/C=N/NC(=O)c2cc3ccccc3[nH]2)cc1,"inconclusive [cytotoxic, partial curve]",–
Cc1cc(-c2cccnc2)c(C#N)c(SCc2cccc(F)c2)n1,"inconclusive [cytotoxic, single point]",–
CC1(C)CC(=O)C2=C(C1)NC(Nc1nc3ccccc3o1)=NC2c1ccccn1 (configuration not stated),inactive,–
COc1ccccc1-c1nnc(NC(=O)c2ccc3c(c2)OCO3)s1,"inconclusive [cytotoxic, full curve]",–
COc1cccc(NC(=O)[C@H](CC(C)C)NC(=O)N2CCn3c2nc2ccccc23)c1,"inconclusive [cytotoxic, single point]",–
O=c1/c(=C/c2ccco2)sc2n1CN(c1cccc(Br)c1)CN=2,inactive,–
COc1cc2c(cc1OC)C(C)N(C(=O)c1cc3c(s1)-c1c(C)cccc1OC3)CC2 (configuration not stated),–,inconclusive: -1.16%
COc1cc(/C=N\NC(=O)c2c(C)nc3cc(C)ccn23)ccc1O,–,inconclusive: -12% [cytotoxic]
COc1ccc2cc(C#CC3=CC(=O)C[C@H](c4ccc(F)cc4)C3)ccc2c1,"inconclusive [cytotoxic, single point]",–
O=C(N/N=C/c1sc2ccccc2c1O)c1ccccc1,active: 2.59 µM,–
Cc1ccc(CNC(=O)[C@H](C)[C@H]2C[C@]2(C)[C@H](NC(=O)OCc2ccccc2)c2ccccc2)o1,inactive,–
CCNC(=O)c1ccc(OCC(=O)Nc2ccc(F)cc2)c(OC)c1,inactive,–
COc1ccc(/C=C/C(=O)c2c(O)c(OC)c3occc3c2OC)cc1OC,active: 11.2 µM,–

SMILES,Potency,"activity, negative = toxicity"
COc1ccccc1CN1CCC(CNS(=O)(=O)c2cc(-c3cc(C)no3)ccc2C)CC1,"inconclusive [cytotoxic, partial curve]",–
N#C/C(=C\c1cn(CCOc2ccccc2F)c2ccccc12)C(=O)NCc1cccs1,"inconclusive [cytotoxic, single point]",–
C/C(=N\NC(=O)c1ccc2c(c1)OCO2)c1ccc(O)cc1,"inconclusive [cytotoxic, partial curve]",–
CCN(CC)C(=O)C(Sc1ccccc1)c1ccccc1 (configuration not stated),inactive,–
COc1ccc(-c2cc(C)no2)cc1S(=O)(=O)Nc1ccc(NC(C)=O)cc1,"inconclusive [cytotoxic, single point]",–
O=C(Nc1nnc(-c2ccc(Br)cc2)o1)c1cccc(N2C(=O)CCC2=O)c1,inactive,–
COc1ccc(CCCNC(=O)C2Cc3c(-c4cccc(NC(C)=O)c4)ccnc3O2)cc1 (configuration not stated),"inconclusive [cytotoxic, full curve]",–
O=C(NCc1cccc(C(F)(F)F)c1)C1CC(c2ccccc2F)=NO1 (configuration not stated),"inconclusive [cytotoxic, single point]",–
CCOc1ccc2c(c1)nc(SCC(=O)c1ccc(Br)s1)n2C,"inconclusive [cytotoxic, single point]",–
Cc1ccc(NC(=O)C(C)N2C(=O)c3ccccc3C2=O)nc1 (configuration not stated),"inconclusive [rising, single point]",–
CC(=O)c1cccc(-c2ccnc3c2CC(C(=O)NCc2ccco2)O3)c1 (configuration not stated),active: 1.3 µM,–
O=C(Nc1cccc(O)c1)c1cnn2cccnc12,"inconclusive [cytotoxic, single point]",–
CN1C2CCC1CC(OC(c1ccccc1)c1ccccc1)C2 (configuration not stated),"inconclusive [cytotoxic, single point]",–
N#Cc1ccc(COc2ccc(CCO)cc2-n2nc3ccccc3n2)cc1,"inconclusive [cytotoxic, partial curve]",–
N#Cc1nc(Cc2cccc3ccccc23)oc1NCCCN1CCOCC1,"inconclusive [cytotoxic, single point]",–
CC(C)c1ccc(C(O)P(=O)(OC2CCCCC2)OC2CCCCC2)cc1 (configuration not stated),"inconclusive [cytotoxic, single point]",–
COc1ccc(CC(=O)Nc2nc(-c3ccc(F)c(F)c3)cs2)cc1OC,"inconclusive [cytotoxic, partial curve]",–
Oc1cccc(Nc2nc(-c3ccccc3)nc3ccccc23)c1,"inconclusive [cytotoxic, single point]",–
COc1cc(/C=C/c2nnc3c4ccccc4ncn23)cc(OC)c1OC,"inconclusive [cytotoxic, partial curve]",–
Cn1nc(C(=O)Nc2ccccc2)c2c1-c1ccccc1S(=O)(=O)C2,inactive,–
CC(C)COC(=O)Nc1nnc(Cc2ccccc2)s1,"inconclusive [cytotoxic, partial curve]",–
CC(=O)c1ccc(-c2ccc([C@H]3[C@H]4C=CC[C@@H](C)[C@@H]4C(=O)N3Cc3ccccc3)c(F)c2)cc1,"inconclusive [cytotoxic, single point]",–
Clc1cccc(CNCCNCc2cccc(Cl)c2)c1,inactive,–
COc1ccc(C)cc1S(=O)(=O)N(CC(=O)NCc1ccc(Cl)cc1)Cc1ccccc1,"inconclusive [cytotoxic, single point]",–
